Test results from a collection of fitness landscapes (doi:10.1016/j.celrep.2020.107928).
In all, about 81,000 sequences were measured (“one-hybrid fitness for binding parS DNA”: median about -0.17, highest 2% from about 0.51 on). Some of the results follow.

B1: Caulobacter ParB omega fusion; a variant is named by its letters at X, in order, B8GW30 (parent)
chain: MESVVVGEPGMSEGRRGLGRGLSALLGEVDAAPAQAPGEQLGGSREAPIEILQRNPDQPRRTFREEDLEDLSNSIREKGVLQPILVRPSPDTAGEYQIVAGERAWRAAQRAGLKTVPIMVRELDDLAVLEIGIIENVQRADLNVLEEALSYKVLMEKFERTQENIAQTIGKSXSHVANXMRLLXLPDEVQSYLVSGELTAXHARAIAAAADPVALAKQIIEGGLSVRETEALARKAPNLSAGKSKGGRPPRVKDTDTQALESDLSSVLGLDVSIDHRGSTGTLTITYATLEQLDDLCNRLTRGI

Variants of: B1
Experiment: one-hybrid fitness for binding parS DNA (scaled: cognate 1, non-cognate 0); higher = stronger binding
Conditions: with parS DNA site
Method in brief: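 The reporter was HIS3, with the binding site 19 bp from the promoter, in E. coli USO used for bacterial one-hybrid selection of Caulobacter ParB libraries with four specificity codons randomised. Growth was on M9 lacking histidine, with 0.1 mM IPTG and 5 mM 3-AT, for 48 hours at 37°C. Illumina sequencing covered plasmids before and after selection; three replicate libraries were pooled and variants with under 10 reads dropped. A fitness score is the log change in variant-to-wild-type read ratio, rescaled to the cognate and non-cognate references.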

| Variant | one-hybrid fitness for binding parS DNA |
| --- | --- |
| PHHQ | ≤ 0.2 |
| TCII | ≤ 0.2 |
| RLDM | 0.299 |
| RGHD | ≤ 0.2 |
| QAPD | ≤ 0.2 |
| RMRN | 0.418 |
| CMAS | ≤ 0.2 |
| GGPS | ≤ 0.2 |
| HTAM | ≤ 0.2 |
| DVLM | ≤ 0.2 |
| NRVF | ≤ 0.2 |
| CGAR | ≤ 0.2 |
| QIQL | ≤ 0.2 |
| ETIW | ≤ 0.2 |
| TADG | ≤ 0.2 |
| GNSI | ≤ 0.2 |
| EGSV | ≤ 0.2 |
| MRRH | ≤ 0.2 |
| PGDI | ≤ 0.2 |
| RKQW | ≤ 0.2 |
| TNPM | ≤ 0.2 |
| WSQF | ≤ 0.2 |
| QQGY | ≤ 0.2 |
| RSMT | 0.813 |

| Variant | one-hybrid fitness for binding parS DNA |
| --- | --- |
| QTCY | ≤ 0.2 |
| RSEL | ≤ 0.2 |
| SVHW | ≤ 0.2 |
| ASSP | ≤ 0.2 |
| YSHS | ≤ 0.2 |
| KAKW | ≤ 0.2 |
| QKEN | ≤ 0.2 |
| DITY | ≤ 0.2 |
| SQRE | ≤ 0.2 |
| KLNT | ≤ 0.2 |
| STMM | ≤ 0.2 |
| FQVG | ≤ 0.2 |
| RSWS | 0.989 |
| VLST | ≤ 0.2 |
| FAIL | ≤ 0.2 |
| LHII | ≤ 0.2 |
| DRDR | ≤ 0.2 |
| LANT | ≤ 0.2 |
| MKQG | ≤ 0.2 |
| WKML | ≤ 0.2 |
| IVDT | ≤ 0.2 |
| YDYG | ≤ 0.2 |
| GPET | ≤ 0.2 |
| CNSR | ≤ 0.2 |

| Variant | one-hybrid fitness for binding parS DNA |
| --- | --- |
| FVAT | ≤ 0.2 |
| TNMM | ≤ 0.2 |
| IRHV | ≤ 0.2 |
| GTSS | ≤ 0.2 |
| KFTF | ≤ 0.2 |
| VINF | ≤ 0.2 |
| KRAW | ≤ 0.2 |
| SETV | ≤ 0.2 |
| RRAL | ≤ 0.2 |
| WCKG | ≤ 0.2 |
| RYSK | ≤ 0.2 |
| MTEF | ≤ 0.2 |
| DINN | ≤ 0.2 |
| LRPY | ≤ 0.2 |
| TADY | ≤ 0.2 |
| VCGG | ≤ 0.2 |
| DRVC | ≤ 0.2 |
| QPQK | ≤ 0.2 |
| NHHR | ≤ 0.2 |
| QHTC | ≤ 0.2 |
| EAYC | ≤ 0.2 |
| CVHG | ≤ 0.2 |
| DSHM | ≤ 0.2 |
| LNNN | ≤ 0.2 |

| Variant | one-hybrid fitness for binding parS DNA |
| --- | --- |
| YMQC | ≤ 0.2 |
| RWSD | ≤ 0.2 |
| AIMP | ≤ 0.2 |
| NRLD | ≤ 0.2 |
| LDAR | ≤ 0.2 |
| CENS | ≤ 0.2 |
| IRKK | ≤ 0.2 |
| MCYR | ≤ 0.2 |
| SLYE | ≤ 0.2 |
| GIPR | ≤ 0.2 |
| RFIA | 0.373 |
| SNSY | ≤ 0.2 |
| SMKT | ≤ 0.2 |
| QCQT | ≤ 0.2 |
| PQFK | 0.3 |
| RRPK | ≤ 0.2 |
| LRVQ | ≤ 0.2 |
| LIKC | ≤ 0.2 |
| KQLS | ≤ 0.2 |
| LFNV | ≤ 0.2 |
| NVNS | ≤ 0.2 |
| ALHM | ≤ 0.2 |
| TYYC | ≤ 0.2 |
| YPKP | ≤ 0.2 |

| Variant | one-hybrid fitness for binding parS DNA |
| --- | --- |
| TYER | ≤ 0.2 |
| YYLS | ≤ 0.2 |
| RPDM | ≤ 0.2 |
| CKAG | ≤ 0.2 |
| DYNR | ≤ 0.2 |
| CDEF | ≤ 0.2 |
| REWN | ≤ 0.2 |
| YWER | ≤ 0.2 |
| QKCN | ≤ 0.2 |
| RTAK | ≤ 0.2 |
| CASW | ≤ 0.2 |
| DPKA | ≤ 0.2 |
| TVWA | ≤ 0.2 |
| RLMH | 0.291 |
| KYYS | ≤ 0.2 |
| TANC | ≤ 0.2 |
| LFSC | ≤ 0.2 |
| HNGG | ≤ 0.2 |
| PMVE | ≤ 0.2 |
| QNAI | ≤ 0.2 |
| PNLE | ≤ 0.2 |
| HTAS | ≤ 0.2 |
| PPDM | ≤ 0.2 |
| RTKE | ≤ 0.2 |

| Variant | one-hybrid fitness for binding parS DNA |
| --- | --- |
| GFAC | ≤ 0.2 |
| CLEV | ≤ 0.2 |
| RWWW | ≤ 0.2 |
| LCMC | ≤ 0.2 |
| CQAT | ≤ 0.2 |
| NGLI | ≤ 0.2 |
| KYYN | ≤ 0.2 |
| YGWY | ≤ 0.2 |
| RSGT | 0.91 |
| GVIT | ≤ 0.2 |
| LFKC | ≤ 0.2 |
| AMYT | ≤ 0.2 |
| DASS | ≤ 0.2 |
| PTPL | ≤ 0.2 |
| RVHL | ≤ 0.2 |
| AFHM | ≤ 0.2 |
| WGKG | ≤ 0.2 |
| DEGF | ≤ 0.2 |
| TPIG | ≤ 0.2 |
| KRLA | ≤ 0.2 |
| GYPT | ≤ 0.2 |
| QKWC | ≤ 0.2 |
| GTIW | ≤ 0.2 |
| KMKT | ≤ 0.2 |

| Variant | one-hybrid fitness for binding parS DNA |
| --- | --- |
| KFSR | ≤ 0.2 |
| LLTC | ≤ 0.2 |
| QQFA | ≤ 0.2 |
| DMIG | ≤ 0.2 |
| RMEV | ≤ 0.2 |
| AVTQ | ≤ 0.2 |
| NFFP | ≤ 0.2 |
| KHAC | ≤ 0.2 |
| ILNR | ≤ 0.2 |
| SSID | ≤ 0.2 |
| SWCT | ≤ 0.2 |
| IRLR | ≤ 0.2 |
| VPIA | ≤ 0.2 |
| FSEV | ≤ 0.2 |
| GNPW | ≤ 0.2 |
| YLVA | ≤ 0.2 |
| CTIV | ≤ 0.2 |
| NRHN | ≤ 0.2 |
| FYRK | ≤ 0.2 |
| TPFE | ≤ 0.2 |
| HYSF | ≤ 0.2 |
| LAWK | ≤ 0.2 |
| GNVR | ≤ 0.2 |
| DCMC | ≤ 0.2 |

| Variant | one-hybrid fitness for binding parS DNA |
| --- | --- |
| PNMS | ≤ 0.2 |
| KITR | ≤ 0.2 |
| PINT | ≤ 0.2 |
| TKKG | ≤ 0.2 |
| KTAK | ≤ 0.2 |
| EHSG | ≤ 0.2 |
| WLSV | ≤ 0.2 |
| KFRR | ≤ 0.2 |
| AVFV | ≤ 0.2 |
| TPKH | ≤ 0.2 |
| SRQK | ≤ 0.2 |
| VIPF | ≤ 0.2 |
| PNEV | ≤ 0.2 |
| LDKR | ≤ 0.2 |
| LSAW | ≤ 0.2 |
| RGRK | ≤ 0.2 |
| RNCN | 0.304 |
| IHGD | ≤ 0.2 |
| MTHT | ≤ 0.2 |
| QSEA | ≤ 0.2 |
| IDTM | ≤ 0.2 |
| SVRI | ≤ 0.2 |
| ALQE | ≤ 0.2 |
| RITS | 0.992 |

| Variant | one-hybrid fitness for binding parS DNA |
| --- | --- |
| TLDF | ≤ 0.2 |
| VNAC | ≤ 0.2 |
| RDWM | ≤ 0.2 |
| QMSG | ≤ 0.2 |
| QYKQ | ≤ 0.2 |
| DALT | ≤ 0.2 |
| QLAL | ≤ 0.2 |
| VGSL | ≤ 0.2 |
| DDRN | ≤ 0.2 |
| LVRI | ≤ 0.2 |
| ALAR | ≤ 0.2 |
| TSQN | ≤ 0.2 |
| FERC | ≤ 0.2 |
| FRAQ | ≤ 0.2 |
| SPAL | ≤ 0.2 |
| MWHC | ≤ 0.2 |
| PARV | ≤ 0.2 |
| QNTM | ≤ 0.2 |
| KCRR | ≤ 0.2 |
| TGHI | ≤ 0.2 |
| VQPG | ≤ 0.2 |
| GGGR | ≤ 0.2 |
| HLVM | ≤ 0.2 |
| DDNG | ≤ 0.2 |

| Variant | one-hybrid fitness for binding parS DNA |
| --- | --- |
| GCMQ | ≤ 0.2 |
| FPDG | ≤ 0.2 |
| LWLS | ≤ 0.2 |
| KPHF | ≤ 0.2 |
| NDWV | ≤ 0.2 |
| QGSH | ≤ 0.2 |
| RGRL | ≤ 0.2 |
| LMPM | ≤ 0.2 |
| TAYW | ≤ 0.2 |
| MAFV | ≤ 0.2 |
| GYCR | ≤ 0.2 |
| WIHC | ≤ 0.2 |
| RIYT | 0.926 |
| KLDT | ≤ 0.2 |
| SLTE | ≤ 0.2 |
| RTWW | 0.293 |
| LRNI | ≤ 0.2 |
| GTPE | ≤ 0.2 |
| TEPV | ≤ 0.2 |
| QYRQ | ≤ 0.2 |
| FGMV | ≤ 0.2 |
| TTLA | ≤ 0.2 |
| QPIM | ≤ 0.2 |
| NTCG | ≤ 0.2 |

| Variant | one-hybrid fitness for binding parS DNA |
| --- | --- |
| SDYR | ≤ 0.2 |
| QGGR | ≤ 0.2 |
| PCRH | ≤ 0.2 |
| PWTN | ≤ 0.2 |
| LWHL | ≤ 0.2 |
| QSNL | ≤ 0.2 |
| PVNH | ≤ 0.2 |
| MLKH | ≤ 0.2 |
| QVRQ | ≤ 0.2 |
| PHTI | ≤ 0.2 |
| CMWL | ≤ 0.2 |
| SSGM | ≤ 0.2 |
| HHSS | ≤ 0.2 |
| ACRT | ≤ 0.2 |
| AGGL | ≤ 0.2 |
| QKHT | ≤ 0.2 |
| KPLS | ≤ 0.2 |
| RGSY | 0.226 |
| YCKC | ≤ 0.2 |
| PEQG | ≤ 0.2 |
| TRSD | ≤ 0.2 |
| TYWM | ≤ 0.2 |
| MRWG | ≤ 0.2 |
| RETR | ≤ 0.2 |

| Variant | one-hybrid fitness for binding parS DNA |
| --- | --- |
| DCLK | ≤ 0.2 |
| RPWL | ≤ 0.2 |
| DRVL | ≤ 0.2 |
| KCTY | ≤ 0.2 |
| FWRG | ≤ 0.2 |
| AQPL | ≤ 0.2 |
| KWLS | ≤ 0.2 |
| THAH | ≤ 0.2 |
| YCRS | ≤ 0.2 |
| TEKN | ≤ 0.2 |
| IGSL | ≤ 0.2 |
| PADH | ≤ 0.2 |
| VMQF | ≤ 0.2 |
| KSPT | ≤ 0.2 |
| PDSD | ≤ 0.2 |
| VTML | ≤ 0.2 |
| DSPV | ≤ 0.2 |
| HPME | ≤ 0.2 |
| IVGC | ≤ 0.2 |
| NLLY | ≤ 0.2 |
| ADTL | ≤ 0.2 |
| TSIG | ≤ 0.2 |
| AHVW | ≤ 0.2 |
| VQVF | ≤ 0.2 |

| Variant | one-hybrid fitness for binding parS DNA |
| --- | --- |
| SHVL | ≤ 0.2 |
| DSKS | ≤ 0.2 |
| LNRS | ≤ 0.2 |
| EYHD | ≤ 0.2 |
| SKIM | ≤ 0.2 |
| SKCR | ≤ 0.2 |
| STIL | ≤ 0.2 |
| KLRC | ≤ 0.2 |
| IKCS | ≤ 0.2 |
| HING | ≤ 0.2 |
| CTCI | ≤ 0.2 |
| GDMC | ≤ 0.2 |
| TAEM | ≤ 0.2 |
| PHGE | ≤ 0.2 |
| RYRK | ≤ 0.2 |
| SAYQ | ≤ 0.2 |
| LAWF | ≤ 0.2 |
| SPLI | ≤ 0.2 |
